# Test results reported in the supplement of paper PMC10338343.
# ± gives the standard deviation. Whole data set: some 6,600 sequences, median “pre-steady-state target cleavage rate” near 0.07, cut for the highest 2% near 0.72. Only a part is listed here, and it is no random draw.
# Test system: MIWI (PIWIL1) piRISC loaded with Kctd7 piRNA (30 nt)
# Experiment: pre-steady-state target cleavage rate (min^-1); MIWI and MILI are mouse PIWI proteins and EfPiwi is from a freshwater sponge; tags in brackets are library labels; higher = faster piRNA-guided slicing of the target
# Conditions: guide: Kctd7 piRNA 5'p-UGUUAAUCUCUCAGAGAAGGUGACAGUGAU; auxiliary factor: 500 nM mouse GTSF1
# Outline: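 Cleave-'n-Seq: 1 nM active affinity-purified piRISC with one synthetic guide and 0.1 nM transcribed, DNA-blocked target RNA library were mixed, with or without 500 nM GTSF1 partner protein, in HEPES–potassium acetate buffer at 33 °C for 0–8 or 0–960 min. Uncleaved targets were sequenced and normalised to depth and to weakly complementary targets, three trials were pooled, and k3 was capped at 0.0001 min^-1. The pre-steady-state cleavage rate was fitted […].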
row,Sequence,pre-steady-state target cleavage rate
1,UAGUGACUCACCUUCUCUCAGAGAUUAAGA,0.0182 ± 0.0076
2,UAGUGUGUCACCUUCACUGAGAGAUUAUGA,0.0366 ± 0.016
3,UAGUGAGUCUCCUUCUCUGAGAGAUUAAGA,0.0391 ± 0.0095
4,AUGACUGUCACCUUCUCUGUGAGAUUAACA,0.278 ± 0.013
5,UAGUGUGUCACCUUGUCUGAGACAUUAACA,0.108 ± 0.02
6,UAGUGACACACCUUCUCUGAGAGUAAUUGA [g8:g22:cont:t1A],0.00437 ± 0.0037
7,UAGUCUGUCACCUUCUCUGAGCAGAUUAACA,0.00314 ± 0.003
8,AUCACACUCACCUUCUCUGAGAGAUUAAGA,0.101 ± 0.019
9,AUCACUGUGACCUUCUCUGAGAGAAUAACA,0.28 ± 0.043
10,UUCUCUGUCACCUUCUCUGAGUGAUUAACA,0.0369 ± 0.0078
11,UAGUGACACACCUAGUCUGAGAGAUUUUGA,< 0.0001
12,UAGUGACAGACCUUCUCUGAGAGAUUAACG [g2:g21:cont:t1G],0.104 ± 0.013
13,UAGUGUGUCACCUUCUCUGAGAGUUUUACA,0.152 ± 0.032
14,UUCACUGUCACCAACUCUGAGAGAUUAUGA,0.0107 ± 0.0037
15,UUCACUGUCACCUUCUCAUGAGAGAUUAACA,0.145 ± 0.051
16,UAGUCUGUCACCUUCUCUGUGAGAUUUACA,0.193 ± 0.022
17,UAGACUCUCACCUUCUCUGAGACAUUAACA,0.314 ± 0.028
18,UAGUGACAGACCUUCUCUGAGAGAUGUAACA,0.0594 ± 0.0092
19,UUCACUGUCACCUUCUCUGAGACAUUUUGA,0.0049 ± 0.0038
20,UAGUGACUCACCUUCUGUGUGAGAUUAACA,0.0331 ± 0.0039
21,UAGUGACUCACCUUCUCUGAGAGAUAACA,0.0123 ± 0.0033
22,UAGUGACACACCUUCUGUGACAGAUUAACA,0.0896 ± 0.016
23,UAGUGACUCACCUUCUCUGAGACAUUAACA,0.234 ± 0.029

row,Sequence,pre-steady-state target cleavage rate
1,UAGUGAGUCACCAUGUCUGAGAGAUUAACA,0.0568 ± 0.0081
2,UUCACUGUCUGGUUCUCUGAGAGAUUAAGA,0.0293 ± 0.0053
3,UAGACUGUCACCUUCUGUCAGAGAUUAACA,0.00627 ± 0.0021
4,UACACUGUCAGCUUCUCUGAGAGAUAAACA,0.21 ± 0.02
5,UAGUCUGUCACCUUCUCUCAGAGAUUUACA,0.0799 ± 0.014
6,AUCACUGUCACCUUCUCUGAGAGAAUAUCA,0.37 ± 0.086
7,UAGAGACUCACCUUCUCUGAGAGAUUUUGA,0.0406 ± 0.0092
8,UUCACUGUCACCUUCUCUGAGAGAUUCACA,0.554 ± 0.087
9,UAGUCUGUCACCUUCCUCUGAGAGAUUAACA,0.453 ± 0.03
10,UAGUGACAGACCUUCUCUGAGGGAUUAACA,0.117 ± 0.016
11,UUGUGUGUCACCUUCUCUGAGAGAUUAUGA,0.11 ± 0.021
12,UAGACUGUCACCUUCUCUGAGAGAUAUAGA,0.00718 ± 0.004
13,AUCAGUGUCUCCUUCUCUGAGAGAUUAACA,0.585 ± 0.04
14,UAGUGUGUCACCUCCUCUGAGAGAUUAACA,0.575 ± 0.033
15,UUCACUGUCACCUUCUCUGAGAGAUAUUCA,0.366 ± 0.07
16,UAGUGUGUCACCUUCUCUGACUCAUUAACA,0.0111 ± 0.0044
17,UAGUCUCUCACCUUCUCUGAGAGAUAUUGA,0.00804 ± 0.0044
18,UACACUGUCACCUUCUACUGAGAGAUUAACA,0.0919 ± 0.04
19,UAGUGACUCACCUUCUCAGAGACAUUAACA,0.0427 ± 0.0055
20,UAGUGAGUCACCUUCUCAGAGAGAUUUACA,0.122 ± 0.018
21,UACACAGUCACCUUCUCUGAGAGAUUAACA,0.589 ± 0.038
22,UACACUGUCACGUUCUCUGAGAGAUUUACA,0.245 ± 0.035
23,UAGUGACAGACCUUCUCUGAGAAGAUUAACA,0.00788 ± 0.0039

row,Sequence,pre-steady-state target cleavage rate
1,AACACUGUCACCUUCUCUGACAGAUUAACA,0.366 ± 0.021
2,AUCACUGUCACCAAGUCUGAGAGAUUAACA,0.25 ± 0.024
3,UAGACUGUGUCCUUCUCUGAGAGAUUAACA,0.504 ± 0.038
4,UAGACUGUCACCUUCUCUGUCAGAUUAACA,0.00592 ± 0.0022
5,UACACAGUCACCUUGUCUGAGAGAUUAACA,0.155 ± 0.023
6,UAGUGACAGUCCUUCUCUGAGAGAAAAACA,0.00477 ± 0.0023
7,AUCAGUGUCACCUUCUCUGAGAGAUUAUGA,0.0526 ± 0.017
8,UAGUGACAGACCUUCUCUGAGAGAGUAACA,0.0502 ± 0.01
9,UAGUCUGUCACCUUCUCUGAGUGAUUAACA,0.0351 ± 0.0074
10,UAGACUGUCACCUUCUCUGCGAGAUUAACA,0.391 ± 0.028
11,UAGUGACAGUCCUUCUCUGAGAGAUUAGACA,0.0176 ± 0.0041
12,UAGUGAGUCACCUUCACUGAGAGAUUAACA,0.559 ± 0.046
13,UUCUCUGACACCUUCUCUGAGAGAUUAACA,0.532 ± 0.021
14,UACACUGUGUGCUUCUCUGAGAGAUUAACA,0.0294 ± 0.0055
15,AUCACUGUCUCCUUCUCAGAGAGAUUAACA,0.374 ± 0.027
16,UAGUGAGAUCACCUUCUCUGAGAGAUUAACA,0.499 ± 0.037
17,UAGUGACAGUGCUUCGCUGAGAGAUUAACA,0.00389 ± 0.0031
18,AUCAGACUCACCUUCUCUGAGAGAUUAAGA,0.159 ± 0.028
19,AUCACUGUCAGCUUCUCUGAGAGAUUAUGA,0.0539 ± 0.011
20,UAGUCUGUCACCUUCUCUCAGAGUUUAACA,0.0454 ± 0.009
21,UUCACUGUCACCCUUCUCUGAGAGAUUAACA,0.543 ± 0.031
22,UAGUCUGUGUCCUUCUCUGAGAGAUUAUGA,0.0165 ± 0.0054
23,UAGACUGUCACCUUCUCUGACUGAUUAACA,0.00921 ± 0.0024

row,Sequence,pre-steady-state target cleavage rate
1,UAGUGACACACCUACACUGAGAGAUUAACA,0.011 ± 0.0044
2,AUCACUGUCACCUUCUCUGAGAGAAAUAGA,0.0401 ± 0.016
3,UACACUGUCACCUACUCAGAGAGAUUAACA,0.118 ± 0.016
4,UUCACUGUGACCUUCUCUGAGAGAUUAUCA,0.2 ± 0.028
5,UAGUGUGUCACCUUCUCUGAGCGAUUAACA,0.195 ± 0.019
6,UAGUGACAGACCUUCACUGAGUGAUUAACA,0.00667 ± 0.0033
7,UAGUGACUCACGUUCUCUGAGAGUUUAACA,0.0255 ± 0.006
8,AUGUCUGUCACCUUCUCUGAGAGAUUAUGA,0.0494 ± 0.013
9,UAGACUGUCUCCUUCUGUGAGAGAUUAACA,0.527 ± 0.029
10,AUCACUGUCACCUUCUCUGAGACUAUAACA,0.00561 ± 0.0031
11,UAGUGAGUCACCUUCUCUGAGAGAUUAACG [g2:g24:cont:t1G],0.622 ± 0.053
12,UAGUGACUCACCUUGACUGAGAGAUUAACA,0.00915 ± 0.0025
13,UAGACAGUCUCCUUCUCUGAGAGAUUAACA,0.433 ± 0.031
14,UAGUGACACACCUUCUCUGAGAGAUGAACA,0.082 ± 0.017
15,UAGACUCUCACCUUCUCUGAGAGAUUAAGA,0.15 ± 0.024
16,UAGUGUGUCACCUUCUCUGAGAUGAUUAACA,0.0117 ± 0.0068
17,AUCACUCUCACCUUCUCAGAGAGAUUAACA,0.364 ± 0.019
18,UAGUGUGUCACGUUCUCUGUGAGAUUAACA,0.204 ± 0.016
19,AUCACUGUCACCUUCUCUGAGAGUUAACA,0.663 ± 0.19
20,UAGUGUGUCACCUACUCUGAGAGAUAUUGA,0.00515 ± 0.0043
21,UAGUGACAGUCCUAUCUCUGAGAGAUUAACA,0.0261 ± 0.0026
22,UAGUGACUCACCUUACUCUGAGAGAUUAACA,0.126 ± 0.011
